Test results: patent US20220169598A1, “HALOGENATED PHENYLSULFONAMIDE HYDROXAMIC ACID COMPOUNDS, COMPOSITIONS AND USES THEREOF AS SELECTIVE HDAC6 INHIBITORS” (2681603 ONTARIO INC., priority 2019, published 2022)
Some results were stated once for a whole list of compounds, not compound by compound.

Target: T1, HDAC6 (Homo sapiens, UniProt Q9UBN7)
T1 sequence (Q9UBN7 1-1215): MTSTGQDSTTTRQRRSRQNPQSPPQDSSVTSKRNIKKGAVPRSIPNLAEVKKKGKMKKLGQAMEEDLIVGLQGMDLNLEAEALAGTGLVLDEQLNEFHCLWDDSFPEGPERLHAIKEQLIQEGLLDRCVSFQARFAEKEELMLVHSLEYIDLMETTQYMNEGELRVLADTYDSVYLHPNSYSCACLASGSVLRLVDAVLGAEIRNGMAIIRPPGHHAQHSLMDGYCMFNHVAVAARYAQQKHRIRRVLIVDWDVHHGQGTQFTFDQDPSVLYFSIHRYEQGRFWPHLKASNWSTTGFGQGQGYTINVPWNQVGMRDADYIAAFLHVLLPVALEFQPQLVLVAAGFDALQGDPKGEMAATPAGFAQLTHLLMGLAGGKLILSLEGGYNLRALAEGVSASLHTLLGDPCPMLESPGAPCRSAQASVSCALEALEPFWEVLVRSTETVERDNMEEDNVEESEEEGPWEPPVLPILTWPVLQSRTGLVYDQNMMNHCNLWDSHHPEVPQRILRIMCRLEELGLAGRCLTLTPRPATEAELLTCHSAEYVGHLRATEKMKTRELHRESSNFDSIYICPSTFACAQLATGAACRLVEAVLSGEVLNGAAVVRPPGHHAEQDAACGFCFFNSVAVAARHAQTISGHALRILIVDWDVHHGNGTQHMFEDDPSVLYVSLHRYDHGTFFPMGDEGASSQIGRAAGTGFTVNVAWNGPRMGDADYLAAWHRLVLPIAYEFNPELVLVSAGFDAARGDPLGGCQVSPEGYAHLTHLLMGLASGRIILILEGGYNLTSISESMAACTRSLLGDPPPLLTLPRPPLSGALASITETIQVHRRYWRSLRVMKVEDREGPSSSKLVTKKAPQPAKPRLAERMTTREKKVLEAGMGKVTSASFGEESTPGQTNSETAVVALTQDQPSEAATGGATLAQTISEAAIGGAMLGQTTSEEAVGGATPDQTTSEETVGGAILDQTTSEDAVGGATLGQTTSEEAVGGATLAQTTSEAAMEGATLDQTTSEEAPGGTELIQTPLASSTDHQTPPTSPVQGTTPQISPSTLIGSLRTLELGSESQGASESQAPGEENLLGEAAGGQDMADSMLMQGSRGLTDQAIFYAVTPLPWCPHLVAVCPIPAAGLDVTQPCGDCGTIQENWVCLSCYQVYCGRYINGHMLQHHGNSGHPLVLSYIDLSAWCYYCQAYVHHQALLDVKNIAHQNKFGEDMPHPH
Test: in vitro activity-based HDAC assay
Assay type: biochemical
Conditions: for selectivity towards HDAC6 compared the highest binding affinity of the other HDAC isoforms tested: calculated from IC50 values against HDAC3, 6, 8 and 11; for IC50: ranges given
Method: The exemplary compounds of Formula I and structurally related compounds were synthesized to assess their structure-activity relationship. […] The IC50 values for each exemplary compound were used to calculate the selectivity of the exemplary compounds for Formula I to HDAC6. The selectivity of each exemplary compound for HDAC6 was determined from examining the potency of HDAC6 in relation to the highest binding affinity of the other HDAC isoforms tested.

| SMILES | selectivity towards HDAC6 compared the highest binding affinity of the other HDAC isoforms tested | IC50 [nM] |
| --- | --- | --- |
| O=C(NO)c1ccc(CN(Cc2cccnc2)S(=O)(=O)c2cc(F)c(F)c(F)c2F)c(C(F)(F)F)c1 [Compound I-31, N-hydroxy-4-((2,3,4,5-tetrafluoro-N-(pyridin-3-ylmethyl)phenylsulfonamido)methyl)-3-(trifluoromethyl)benzamide] | less than 5 times |  |
| O=C(/C=C/c1ccc(CN(Cc2cccnc2F)S(=O)(=O)c2cc(F)c(F)c(F)c2F)c(C(F)(F)F)c1)NO [Compound I-79] |  | > 200 |
| COc1cc(/C=C/C(=O)NO)ccc1CN(Cc1cccnc1F)S(=O)(=O)c1cc(F)c(F)c(F)c1F [Compound I-77] |  | > 200 |
| COc1cc(CN(Cc2cccnc2)S(=O)(=O)c2cc(F)c(F)c(F)c2F)ccc1/C=C/C(=O)NO [Compound I-75] |  | > 200 |
| O=C(/C=C/c1ccc(CN(Cc2cccnc2)S(=O)(=O)c2cc(F)c(F)c(F)c2F)c(C(F)(F)F)c1)NO [Compound I-80] |  | > 200 |

Next, values leading:

| selectivity towards HDAC6 compared the highest binding affinity of the other HDAC isoforms tested | IC50 [nM] | SMILES |
| --- | --- | --- |
| less than 5 times |  | O=C(NO)c1ccc(CN(Cc2cc(F)c(F)c(F)c2)S(=O)(=O)c2c(F)c(F)c(F)c(F)c2F)cc1 [Compound I-11, N-hydroxy-4-((2,3,4,5,6-pentafluoro-N-(3,4,5-trifluorobenzyl)phenylsulfonamido)methyl)benzamide] |
| less than 5 times |  | O=C(NO)c1ccc(CN(C2CC2)S(=O)(=O)c2c(F)c(F)c(F)c(F)c2F)cc1 [Compound I-4, 4-((N-cyclopropyl-2,3,4,5,6-pentafluorophenylsulfonamido)methyl)-N-hydroxybenzamide] |
| over 100 times |  | O=C(NO)c1ccc(CN(Cc2cccnc2)S(=O)(=O)c2cc(F)c(F)c(F)c2F)c(F)c1 [Compound I-30, 3-fluoro-N-hydroxy-4-((2,3,4,5-tetrafluoro-N-(pyridin-3-ylmethyl)phenylsulfonamido)methyl)benzamide] |
| over 100 times |  | CC(C)N(Cc1ccc(C(=O)NO)cc1)S(=O)(=O)c1c(F)c(F)c(F)c(F)c1F [Compound I-3, N-hydroxy-4-((2,3,4,5,6-pentafluoro-N-isopropylphenylsulfonamido)methyl)benzamide] |
| less than 5 times |  | COc1cc(C(=O)NO)ccc1CN(C(C)C)S(=O)(=O)c1cc(F)c(F)c(F)c1F [Compound I-53, N-hydroxy-3-methoxy-4-(((2,3,4,5-tetrafluoro-N-isopropylphenyl)sulfonamido)methyl)benzamide] |
| less than 5 times |  | CC(C)(C)c1ccc(CN(Cc2ccc(C(=O)NO)cc2)S(=O)(=O)c2c(F)c(F)c(F)c(F)c2F)cc1 [Compound I-8, 4-((N-(4-(tert-butyl)benzyl)-2,3,4,5,6-pentafluorophenylsulfonamido)methyl)-N-hydroxybenzamide] |
